Among all 390,000 compounds or so, about 150 (0.038%) were called active. This list was built around the results that the source calls inconclusive (neither active nor inactive); the mix of calls is not that of the screen. The call rests on the fitted dose curve; in most records, active means well fitted inhibition curve with a large enough effect; inconclusive means small, poorly fitted or top-dose-only effect; inactive means no such curve, though single readings can be large or run the other way. Potencies beside an inconclusive call are fits to weak or partial responses and may not hold up.
These molecules were tested against Regulator of G-protein signaling 4 (Homo sapiens) (UniProt P49798) (assay: Inhibitors of Regulator of G Protein Signaling (RGS) 4: qHTS). Conditions: Transcreener GDP fluorescence polarization, RGS4-accelerated GTP hydrolysis; series mostly up to 114 µM; activity change, negative = inhibition: at the top concentration.
Chain of UniProt P49798 (P49798 whole entry, looked up): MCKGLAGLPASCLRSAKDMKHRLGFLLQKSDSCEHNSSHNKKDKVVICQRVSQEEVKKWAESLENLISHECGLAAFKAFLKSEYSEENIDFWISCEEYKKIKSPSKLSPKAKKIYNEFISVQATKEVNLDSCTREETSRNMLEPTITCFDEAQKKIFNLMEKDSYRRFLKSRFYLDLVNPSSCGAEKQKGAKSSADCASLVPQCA
How it was run: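 MLSMR compounds (23 nl, pin-transferred) preincubated 10 min at room temperature with a 500nM (2x) first reagent, then RGS4 at 900nM (2x) plus Transcreener GDP mix added; fluorescence polarization (620/688 nm) read before and after 90 min at 30 °C.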
COc1ccc(C2CC(c3ccc(Br)cc3)=NN2C(=O)c2cccnc2)cc1 (stereo not given) was tested, and the “activity change, negative = inhibition” value was inactive: -33.6%. With Cc1nc2c(n1C1CCCCC1)C(=O)c1ccccc1C2=O the “activity change, negative = inhibition” value was inactive: -20.2%. For CC[n+]1ccc(C[n+]2ccccc2)c2ccccc21, the Potency was inconclusive: 56.2 µM [inhibitor, partial curve, poor fit]. In the case of COc1ccc(Cl)cc1NC(=O)c1c(NCc2sccc2C)sc2c1CCCC2, the Potency is reported as inconclusive: 25.1 µM [inhibitor, full curve, poor fit]. For Cc1ccc(C(CNS(=O)(=O)c2ccc(C)cc2)N2CCN(C)CC2)cc1 (stereo not given), the “activity change, negative = inhibition” value was inactive: -16.4%. For Cc1ccc(S(=O)(=O)Nc2cccc(-c3ccc4nncn4n3)c2)cc1, the Potency was inconclusive: 79.4 µM [inhibitor, single point]. With O=C(O)/C=C/C(=O)NNC(=O)c1ccc(Cl)cc1Cl the Potency was inconclusive: 56.2 µM [inhibitor, partial curve, poor fit]. With OC(CNC1Cc2ccccc2C1)COc1ccc(Cl)cc1 (stereo not given) the “activity change, negative = inhibition” value was inactive: -9.06%. For COc1cccc(NC(=O)CN(C)C(=O)COc2ccc3ccccc3c2)c1, the “activity change, negative = inhibition” value was inactive: -9.33%. COc1ccc(C(=O)NC(=S)N(C)C2CCCCC2)cc1Br was tested, and the Potency was inconclusive: 89.1 µM [inhibitor, partial curve, poor fit]. With COc1cc(CNn2cn[nH]c2=S)cc(Cl)c1OCc1ccc(F)cc1 the Potency was inconclusive: 50.1 µM [inhibitor, partial curve, poor fit]. For COc1ccc(S(=O)(=O)/N=C2/C=CC(=O)C(C)=C2C)cc1, the Potency was inconclusive: 44.7 µM [inhibitor, partial curve, poor fit]. For CSc1nc(N(C)CCO)c2sc3nc(-c4ccco4)c4c(c3c2n1)CCC4, the Potency was inconclusive: 56.2 µM [inhibitor, partial curve, poor fit]. With CCc1ccc(C(=O)/C=C2\Sc3ccccc3NC2=O)cc1 the Potency was inconclusive: 79.4 µM [inhibitor, single point]. For C=CCSC1=C(C#N)C(c2ccccc2OCC)CC(=O)N1 (stereo not given), the Potency was inconclusive: 39.8 µM [inhibitor, partial curve, poor fit]. For C=CCn1c(SCC(=O)Nc2cc(C)on2)nc2c([nH]c3ccccc32)c1=O, the Potency was inconclusive: 89.1 µM [inhibitor, single point]. For CN1CCN2c3ncccc3Cc3ccccc3[C@@H]2C1, the “activity change, negative = inhibition” value was inactive: 9.59%. With N#CCCn1cc(C(N)=O)c(-c2ccc3ccccc3c2)n1 the Potency was inconclusive: 50.1 µM [inhibitor, partial curve, poor fit]. In the case of Clc1ccccc1-c1nnc2sc(-c3ccncc3)nn12, the Potency is reported as inconclusive: 79.4 µM [inhibitor, partial curve, poor fit]. With CCOc1ccc(-n2nnnc2SCC(=O)NNC(=O)c2ccco2)cc1 the Potency was inconclusive: 39.8 µM [inhibitor, full curve, poor fit]. With CCOC(=O)C1=C(CSc2nc3c(cc2C#N)CN(C)CC3)OC(N)=C(C#N)C1c1ccc(Cl)cc1 (stereo not given) the Potency was inconclusive: 79.4 µM [inhibitor, single point]. In the case of CCOc1cc(/C=C2\C(=O)N(CCc3ccc(OC)c(OC)c3)C(C)=C2C(=O)OC)ccc1O, the Potency is reported as inconclusive: 79.4 µM [inhibitor, partial curve, poor fit]. With C=CCn1cccc(C(=O)Nc2ccc(OC)c(OC)c2)c1=O the Potency was inconclusive: 79.4 µM [inhibitor, single point]. For CCc1nnc(NS(=O)(=O)c2ccc(NC(=S)NC(=O)c3ccc(OC)cc3)cc2)s1, the Potency was inconclusive: 79.4 µM [inhibitor, partial curve, poor fit]. With CC(CCc1ccco1)NC(=O)c1cccc2c1C(=O)N(C1CCCCC1)C2 (stereo not given) the Potency was inconclusive: 44.7 µM [inhibitor, partial curve, poor fit]. Cc1ccc(NC(=S)N=Nc2c(O)[nH]c3ccccc23)cc1 was tested, and the “activity change, negative = inhibition” value was inactive: -14.8%. With CC(C)=CCCC(C)CN1CCC(N2CCC(C(=O)N3CCOCC3)CC2)CC1 (stereo not given) the “activity change, negative = inhibition” value was inactive: -6.57%. In the case of COCC(=O)N(C)C[C@H]1N[C@@](Cc2ccccc2)(C(=O)OC)[C@H]2C(=O)N(Cc3ccccc3)C(=O)[C@@H]12, the Potency is reported as inconclusive: 79.4 µM [inhibitor, single point]. CCOc1ccc(CNc2ccc(N3CCCC3)cc2)cc1 was tested, and the Potency was inconclusive: 44.7 µM [inhibitor, partial curve, poor fit]. COc1ccc(C(=O)NCC23C=CC(O2)C2C(=O)N(Cc4ccccc4)C(=O)C23)cc1 (stereo not given) was tested, and the Potency was inconclusive: 89.1 µM [inhibitor, single point]. For N#Cc1ccccc1NC(=O)C(=O)NCC(c1ccc2c(c1)OCO2)N1CCN(c2ccccc2)CC1 (stereo not given), the “activity change, negative = inhibition” value was inactive: -7.91%. In the case of CC(C)(C)OC(=O)N[C@@H](CC(=O)OCc1ccccc1)C(=O)O, the Potency is reported as inconclusive: 79.4 µM [inhibitor, partial curve, poor fit]. COc1ccc(Nc2nc(-c3sc(N)nc3C)cs2)cc1 was tested, and the Potency was inconclusive: 17.8 µM [inhibitor, full curve, poor fit]. With Cc1nc2c(C)cccn2c1C(=O)c1ccccc1 the “activity change, negative = inhibition” value was inactive: -2.97%. With O=C(Cc1cccs1)Nc1cc(S(=O)(=O)N2CCCCC2)ccc1Cl the “activity change, negative = inhibition” value was inactive: -22.9%. COc1ccc(OC)c(S(=O)(=O)N2CCC3(CC2)OCCN3S(=O)(=O)c2ccccc2)c1 was tested, and the “activity change, negative = inhibition” value was inactive: -15.2%. In the case of CCOc1ccc(/C=C/c2nc(C#N)c(Nc3ccc(OCC)cc3)o2)cc1, the “activity change, negative = inhibition” value is reported as inactive: -23.8%. CCN(CC)c1ccc(/C=N/NC(=O)c2c(Cl)cnn2C)c(O)c1 was tested, and the “activity change, negative = inhibition” value was inactive: -15.3%. With Fc1ccc(/C=N/n2c(COc3ccccc3)n[nH]c2=S)cc1 the Potency was inconclusive: 17.8 µM [inhibitor, full curve, poor fit]. For CCCN(CC(=O)Nc1ccccc1OC)C(=O)CN1C(=O)NC2(CCCCC2)C1=O, the Potency was inconclusive: 89.1 µM [inhibitor, single point]. With CC[C@]1(C(=O)OC)[C@H]2C(=O)N(Cc3ccccc3)C(=O)[C@H]2[C@H]2CN=C(SCC(=O)c3ccccc3)N21 the Potency was inconclusive: 70.8 µM [inhibitor, partial curve, poor fit]. With CCCCCCCCN1[C@@H](CC(=O)OC)c2cc(F)ccc2S1(=O)=O the “activity change, negative = inhibition” value was inactive: -16.4%. In the case of CC(=NNC(=S)N1CCN(c2ccccn2)CC1)c1ccccn1, the Potency is reported as inconclusive: 79.4 µM [inhibitor, partial curve, poor fit]. In the case of CN(CC(=O)Nc1c(Cl)cccc1Cl)C(=O)c1cccc(-n2cccc2)c1, the “activity change, negative = inhibition” value is reported as inactive: -12%. With Cn1c(CNc2nc(-c3ccccc3)cs2)nnc1SCC(=O)OC1CCCCC1 the activity change, negative = inhibition was inactive: 13.4% [at 11.4 µM]. COC(=O)C1=C(C(=O)OC)C(c2ccc(OC)c(OC)c2)c2sc(=O)[nH]c2S1 (stereo not given) was tested, and the Potency was inconclusive: 20 µM [inhibitor, full curve, poor fit]. C/C(=N\NC(=O)C(N)=O)c1cccc(C(F)(F)F)c1 was tested, and the Potency was inconclusive: 89.1 µM [inhibitor, single point]. With Cc1ccc2nc(N3CCN(C(=O)CCC(=O)O)CC3)nc(-c3ccccc3)c2c1 the “activity change, negative = inhibition” value was inactive: -11.4%. For O=C(c1cccc(F)c1)N1CCC(c2c[nH]c3ccccc23)(c2c[nH]c3ccccc23)CC1, the “activity change, negative = inhibition” value was inactive: -15.2%. O=C(O)C1=CC(=C(c2ccc(O)c(C(=O)O)c2)c2ccc(O)c(C(=O)O)c2)C=CC1=O was tested, and the Potency was active: 10.6 µM. For CC(=O)Nc1ccccc1NC(=O)C/C(C)=N/NC(=O)C(=O)Nc1cccc(Cl)c1C, the “activity change, negative = inhibition” value was inactive: -4.29%. COc1ccc(NC(=O)C(C)n2c(C)c3cnn(-c4ccccc4)c(=O)c3c2C)cc1Cl (stereo not given) was tested, and the “activity change, negative = inhibition” value was inactive: 2.95%. In the case of O/C=c1\ccc2cccc3nc(C(F)(F)F)nc1c23, the Potency is reported as inconclusive: 35.5 µM [inhibitor, full curve, poor fit]. CC(C)(CN1CCN(C(c2ccccc2)c2ccccc2)CC1)NS(=O)(=O)c1ccccc1 was tested, and the “activity change, negative = inhibition” value was inactive: 13.8%. For Cc1cc(=O)oc2cc(OCC(=O)OCC(=O)Nc3ccccc3C(C)C)ccc12, the “activity change, negative = inhibition” value was inactive: 9.22%. In the case of CCN(CC)c1ccc(S(=O)(=O)N2CCCCC2)cc1NC(=O)CSCc1c(C)noc1C, the “activity change, negative = inhibition” value is reported as inactive: 11.6%. With CCOC1OC(=O)C(Cl)=C1Nc1ccc(C)cc1C (stereo not given) the Potency was inconclusive: 89.1 µM [inhibitor, single point]. With COc1ccc(S(=O)(=O)NCCC(=O)NC2CCCCC2C)cc1[N+](=O)[O-] (stereo not given) the “activity change, negative = inhibition” value was inactive: 11.8%. O=C(NCC(=O)N(Cc1cccs1)C(C(=O)NC1CCCCC1)c1ccco1)c1ccco1 (stereo not given) was tested, and the Potency was inconclusive: 50.1 µM [inhibitor, partial curve, poor fit]. Cc1sc2ccc3sccc3c2[n+]1C was tested, and the Potency was inconclusive: 44.7 µM [inhibitor, partial curve, poor fit]. Cn1/c(=N\NC(=O)C2CCCCC2)sc2ccccc21 was tested, and the “activity change, negative = inhibition” value was inactive: 2.47%. In the case of Fc1ccc(OCc2nc(-c3cccs3)no2)cc1, the “activity change, negative = inhibition” value is reported as inactive: -0.183%. For CC1=CC(=O)C(C(C)C)=CC1=NC(=O)c1ccc(C)cc1, the Potency was inconclusive: 28.2 µM [inhibitor, full curve, poor fit]. O=C(CNCCN1CCOCC1)Nc1ccccc1Sc1ccccc1 was tested, and the “activity change, negative = inhibition” value was inactive: 0.972%. With COc1ccc(OC)c(C(c2nnnn2CC2CCCO2)N2CCN(C3CCCC3)CC2)c1 (stereo not given) the Potency was inconclusive: 89.1 µM [inhibitor, single point]. O=C(NCc1ccncc1)c1ccc(Oc2ccccc2)cc1 was tested, and the Potency was inconclusive: 28.2 µM [inhibitor, full curve, poor fit]. CCOc1ccc(NC(=O)[C@H](Cc2ccccc2)N2Cc3ccccc3C2=O)cc1 was tested, and the “activity change, negative = inhibition” value was inactive: 2.15%. COc1cccc(/C=N/N=C(\N)c2nonc2N)c1O was tested, and the Potency was inconclusive: 79.4 µM [inhibitor, partial curve, poor fit]. In the case of Cc1ccc(-c2c[n+](CC(=O)OCc3ccccc3)c3n2CCC3)cc1, the “activity change, negative = inhibition” value is reported as inactive: 13.6%. Cc1ccc(S(=O)(=O)NC(C)(C)CN2CCC(Cc3ccccc3)CC2)cc1 was tested, and the “activity change, negative = inhibition” value was inactive: -7.06%.

Source: PubChem BioAssay AID504845 (National Center for Advancing Translational Sciences (NCATS), 2011)
Further: nearly all actives have a fitted effect of over 75% in size.
On the % scale 0 is the no-effect control and ±100 the full control effect; potency means the concentration at half of the fitted maximal effect; tags describe the fitted curve by direction and shape.
